# Reference: the supplement of paper PMC11417369
# ± gives the standard deviation of the averaged measurements. The list shows a part of the results.
# Tested on: PfAP2-LT AP2 domain (GST-tagged)
# Experiment: gcPBM binding intensity (ln(normalized median fluorescence intensity)); higher = stronger DNA binding
# Summary of the method: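 In this array assay, P. falciparum DNA-binding domains with a GST tag, expressed in E. coli, were applied for 1 h to primer-extended double-stranded 36-bp intergenic genomic probes and negative controls on an Agilent 4 × 180k array. Bound protein was visualised with Alexa488 anti-GST antibody at 488 nm. Binding intensity is the highest Masliner-normalised natural-log median intensity across replicate spots of either probe orientation.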
row,Sequence,gcPBM binding intensity (ln)
1,TATAATACATTATATTGTACTATATTATAATAAATT [XGTACX_site5934],8.55 ± 0.35
2,GACAAATTATTGTGTACACAATATTATTATATATAC [CACACA_site6020],9.02 ± 0.37
3,ACAAATAAAAATATTACACACACTATTCTAGTGATA [CACACA_site6812],8.93 ± 0.33
4,TAAATATATATAATTACACACTTTTCTATAATATGA [CACACA_site711],8.57 ± 0.42
5,CTTATGTTTTTTAAGTGTACATATTATACGTATTAT [XGTACX_site1176],9.02 ± 0.42
6,AATATAAACATAGATAGATAAATAAATAAATAAACA [GTGCAC_negctrl_site567],8.92 ± 0.44
7,AATAATTGTTAAAGGTGTACAATACGTATGTAAGAA [XGTACX_site1328],9.31 ± 0.54
8,AACAGATATATATGTAGTACATGTTCTAGATATTTT [XGTACX_site1208],8.9 ± 0.42
9,ATGTAGACATAATGGGGTACAAAAAAAAAAAAAAAA [XGTACX_site881],8.71 ± 0.58
10,AAAAAAAATAAAAATAAAAATAAAAATAAAAATAAA [GTGCAC_negctrl_site437],8.23 ± 0.66
11,TATCATTTTGTATATAGTACATATATAAAATCGTTA [XGTACX_site3875],8.48 ± 0.42
12,ATAAAAATAACATATAAACACACATATATATATATA [CACACA_site9267],9.565 ± 0.078
13,CAAGCACCCAGACACACACACACACCCACACCCACA [CACACA_site369],10.1 ± 0.47
14,GGAATATTTATACATACACACATATATTTATTTATA [CACACA_site6883],8.91 ± 0.38
15,AGTCATTAAATATAATGTACATGGAAAAACAGCTGA [XGTACX_site7944],8.97 ± 0.4
16,AAAAAAATCACATAATATACTTTATTTTATTTTGTA [GTGCAC_negctrl_site562],8.41 ± 0.59
17,ACAAAGAACTATAATACACACAAGAATATATTGGAT [CACACA_site7771],9.3 ± 0.39
18,TTATAAGATTTATGTACACACATATACACCCCTCTA [CACACA_site4562],9.26 ± 0.33
19,GTTATAGAAGCATTCACACACACACCGACATACACA [CACACA_site4914],9.87 ± 0.26
20,ATATATATATAAATATAAATATATATATATATATAT [CACACA_negctrl_site1685],9.02 ± 0.23
21,AATAATTAAATATATTTATAACAGGAAAATATTTAT [XGTACX_negctrl_site175],8.52 ± 0.41
22,ATAAATTATATTCAAGTGCATGTAACTTATTATTAT,8.73 ± 0.42
23,AAAAAAAAAAATTCCAGTACACACAATAATACTAAA [XGTACX_site5930],8.98 ± 0.35

row,Sequence,gcPBM binding intensity (ln)
1,TAAATAATCATAGTTCTACACACCTATATTGCAAAA [CACACA_site8190],8.74 ± 0.36
2,ATATATATAATATGATGTACTATTTTGATAAAAAAT [XGTACX_site3975],8.62 ± 0.46
3,AATATATTGCACCATTGGACCTGAATAATTCTTCCA [CACACA_negctrl_site1071],8.81 ± 0.38
4,GTAAGAAACGGACACACACACATATATATATATATA [CACACA_site4593],10.39 ± 0.05
5,TAGTAAGAATTACTGTGTACTAAAATATTAAAAAGT [XGTACX_site2578],8.82 ± 0.57
6,AAATAGTCTTCTCTTGCATGTAACAAATATATATAT [TGCATGCA_site428],8.74 ± 0.32
7,AATAAAAACAAACAAAAAAACAAATAAATAAATAAA [CACACA_negctrl_site483],8.79 ± 0.45
8,ACATATAAGTTATATACACACAATAATATGTAAATA [CACACA_site6766],9.12 ± 0.38
9,ATATTTTTTATAAAATGTACTTATTATTAGAATATA [XGTACX_site2460],8.33 ± 0.38
10,TACAAAATATGGTAATAAAGTAGTTACATGAATTGG [XGTACX_negctrl_site522],8.8 ± 0.42
11,TATTATAATATATTTGTGCACATAATACCTCCGCTA [GTGCAC_site9570],8.97 ± 0.5
12,AATATATACATATGTATGCACTTTTTAATTATTTTT,8.73 ± 0.57
13,GTTATAGAAGCATTCACACACACACGGACATACACA [CACACA_site6801],10 ± 0.3
14,TTTTTTTATAAAAATGAACACACACCGATATATATA [CACACA_site9161],8.95 ± 0.3
15,ATTGATCTTTATTGTTGTACATTAAACGTTAATTTT [XGTACX_site1788],8.95 ± 0.39
16,TACCTATAAAAGTACACACACACACGGATATAAATA [CACACA_site6569],9.95 ± 0.19
17,ACTATAAATATATACACATGCGCACACACAAGTGGG [TGCATGCA_site432],9.54 ± 0.25
18,ATGGAAATTTTATCATGTACATATACCGTTGAATAA [XGTACX_site5420],8.68 ± 0.35
19,AATAAAAAAATTAAAATTAAAAAATTAAAACTTAAA [CACACA_negctrl_site987],8.2 ± 0.64
20,TATTATATAATTTTAACACACAAGAATATAAACTTT [CACACA_site1363],8.62 ± 0.43
21,TAACAAAATGTAAATAAACACACATATATATATATA [CACACA_site8352],9.72 ± 0.25
22,AACATTCTATGTTGCACACAAAGAGAAAAATTTATT [CACACA_site3995],8.98 ± 0.46
